The whole screen tested about 310,000 compounds, of which about 2,200 (0.71%) showed an effect of 50% or more. The effect is printed as a negative number. The list shows a part of the results.

From PMC4336329 (PLoS ONE, 2015) come the findings set out here.

The target in the assay is human ether-à-go-go-related gene (hERG) potassium channel (human, UniProt Q12809). Nature of the assay: primary screen, population patch clamp on CHO cells stably expressing hERG.
human ether-à-go-go-related gene (hERG) potassium channel, sequence (Q12809 whole entry, looked up): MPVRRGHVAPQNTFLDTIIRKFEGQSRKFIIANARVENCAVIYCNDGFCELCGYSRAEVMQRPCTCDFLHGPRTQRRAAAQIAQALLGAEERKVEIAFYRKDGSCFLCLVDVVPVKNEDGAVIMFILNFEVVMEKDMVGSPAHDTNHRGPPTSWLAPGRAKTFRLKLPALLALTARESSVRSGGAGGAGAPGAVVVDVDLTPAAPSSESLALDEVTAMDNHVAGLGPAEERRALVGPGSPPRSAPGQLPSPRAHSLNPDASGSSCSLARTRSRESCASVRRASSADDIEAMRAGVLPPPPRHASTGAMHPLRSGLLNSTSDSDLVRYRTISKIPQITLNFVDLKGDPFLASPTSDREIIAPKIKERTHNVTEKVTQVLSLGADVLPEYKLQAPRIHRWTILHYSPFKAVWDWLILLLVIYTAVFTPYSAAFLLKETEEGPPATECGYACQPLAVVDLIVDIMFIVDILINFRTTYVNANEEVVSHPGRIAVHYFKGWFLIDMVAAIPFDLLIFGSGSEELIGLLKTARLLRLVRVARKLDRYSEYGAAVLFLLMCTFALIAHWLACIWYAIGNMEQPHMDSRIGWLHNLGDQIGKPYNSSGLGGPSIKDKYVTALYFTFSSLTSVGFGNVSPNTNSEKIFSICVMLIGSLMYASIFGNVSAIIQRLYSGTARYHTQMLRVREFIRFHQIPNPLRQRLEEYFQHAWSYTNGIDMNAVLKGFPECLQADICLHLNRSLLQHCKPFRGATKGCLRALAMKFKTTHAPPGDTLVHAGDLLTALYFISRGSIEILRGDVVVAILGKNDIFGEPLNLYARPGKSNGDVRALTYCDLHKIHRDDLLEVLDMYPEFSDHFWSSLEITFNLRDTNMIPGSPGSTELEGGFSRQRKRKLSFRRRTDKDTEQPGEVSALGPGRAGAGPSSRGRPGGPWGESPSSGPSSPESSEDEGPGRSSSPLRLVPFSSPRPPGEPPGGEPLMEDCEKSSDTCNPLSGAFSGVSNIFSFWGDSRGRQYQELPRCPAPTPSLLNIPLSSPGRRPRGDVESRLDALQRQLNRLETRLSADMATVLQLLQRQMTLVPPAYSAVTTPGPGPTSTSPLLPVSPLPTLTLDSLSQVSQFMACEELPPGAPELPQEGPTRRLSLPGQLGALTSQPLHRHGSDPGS
With `CCCCN(C)C(=O)c1cn(C)c2ccc(S(=O)(=O)N(C)C)cc2c1=O`, the “hERG current change (%, negative = inhibition) at 1uM” value is 13.3%.

Regarding `C/C(=N\NC(=O)C1CCCC1)c1ccc(C(C)C)cc1`, the “hERG current change (%, negative = inhibition) at 1uM” value is -24.6%. In the case of `CCOC(=O)C1CCN(C(=O)C2CCN(S(=O)(=O)c3ccc4ccccc4c3)CC2)CC1` it was 0.237%; in that of `Cc1cc(C)c[n+](-c2[nH]c(=O)sc2/C=N/N=C(\[O-])c2cccnc2)c1`, 3.11%. As for `Cc1c(NC(=O)c2ccc(NS(=O)(=O)c3ccccc3)cc2)c(=O)n(-c2ccccc2)n1C`, the figure is -13.3%. On to `CC(NCCc1ccc(O)cc1)C(O)c1ccc(O)cc1.Cl` (centres unmarked), for which the “hERG current change (%, negative = inhibition) at 1uM” value came out at 14.2%.

For the compound `CC(=O)Nc1ccc(C(=O)OCc2ccccc2Br)cc1`, the “hERG current change (%, negative = inhibition) at 1uM” value is 14.1%. In the case of `O=C(Nc1cccc(OCC(=O)N2CCOCC2)c1)c1cccc(Cl)c1` it was 16.1%; in that of `Cc1nnc2n(-c3ccccc3)c(=O)c3c4c(sc3n12)CC(C)CC4` (centres unmarked), 3.72%; in that of `CCNC(=S)N1CCN(CCN=CC2=C(O)CC(c3ccco3)CC2=O)CC1` (centres unmarked), 9.17%. As for `CCC(C)N(C(=O)CSc1nnc(NC(C)C)s1)C1CCS(=O)(=O)C1` (centres unmarked), the figure is 11.1%. As for `Cc1ccc(NC(=O)c2ccc([N+](=O)[O-])cc2Cl)nc1`, the figure is 0.895%. On to `CN1C(C(=O)NCC2CC2)CC2Cn3c(nc4ccccc43)C21` (centres unmarked), for which the “hERG current change (%, negative = inhibition) at 1uM” value was 9.46%. In the case of `COc1ccc(/C=C/c2cc(C(F)(F)F)on2)cc1` it was 17.5%.

As for `Cc1ccc2c(c1)nnn2C1CCN(C(=O)Nc2ccccc2C)CC1`, the “hERG current change (%, negative = inhibition) at 1uM” value is reported as 3.09%. As for `CCOC(=O)N1CCC(N2C(=O)c3ccc(C(=O)Nc4ccc(OC)c(OC)c4)cc3C2=O)CC1`, the figure is 11.3%. As for `O=C(CCC1CCCC1)N1CCN(S(=O)(=O)Cc2ccccc2)CC1`, the figure is 8.09%; as for `CCCCOc1cccc(C(=O)NC(=S)Nc2ccc(Cl)c(C(=O)O)c2)c1`, 9.79%; as for `S=C(NCc1ccncc1)NC1CCCC1`, 15.9%. As for `COc1ccc(NS(=O)(=O)c2ccc(Cl)c(NC(=O)c3cccnc3Cl)c2)cc1`, the figure is 8.68%; as for `O=C(NCc1ccco1)c1ccc(Cn2c(=O)c3ccccc3n(Cc3ccc(Cl)cc3)c2=O)cc1`, 21.2%.

With `O=C(CCCOc1ccccc1)Nc1cccc([N+](=O)[O-])c1`, the “hERG current change (%, negative = inhibition) at 1uM” value came out at 10.7%. As for `COC(=O)CCN1CCC(C(N)=O)CC1`, the figure is 8.56%; as for `CC(=O)NCCC(=O)Nc1cc(S(=O)(=O)N2CCCCC2)ccc1Oc1cccc(C)c1`, -9.98%; as for `CCCCC1=CC2=CC(=O)C(C)(OC(=O)C3CCCC3)C(=O)C2=CO1` (centres unmarked), 16.3%.

With `CCOc1ccccc1CN1CCNC(=O)C1CC(=O)N(C)Cc1nonc1C` (centres unmarked), the “hERG current change (%, negative = inhibition) at 1uM” value was determined as 12.2%. As for `Cl.O=C(O)CCCCCNc1ncnc2ccc(Br)cc12`, the “hERG current change (%, negative = inhibition) at 1uM” value is 10.4%. In the case of `COc1ccc(CN(C2CCCCC2C)S(=O)(=O)c2ccc(S(=O)(=O)N(C)C)cc2)cc1OC` (centres unmarked) it was 7.35%; in that of `CCOc1cc(S(=O)(=O)n2nc(C)cc2C)ccc1F`, 8.12%. As to `CC(C)N1CCN(Cc2ccc(C#CCCO)cc2)CC1CCO` (centres unmarked), the “hERG current change (%, negative = inhibition) at 1uM” value was 10.2%. In the case of `CN(Cc1ccccc1)c1oc(-c2ccco2)nc1C#N` it was 5.77%; in that of `O=C(CNCCO)N1N=C(c2cccs2)CC1c1cccs1` (centres unmarked), -3.17%; in that of `CC1(C)NC(=O)N(CC(=O)OCC(=O)NC(=O)c2ccccc2)C1=O`, 4.44%. In the case of `O=C(CCSc1ccccc1)Nc1nccs1` it was 7.06%; in that of `O=C(NCc1ccc2[nH]c3c(c2c1)CCCC3)c1ccc(S(=O)(=O)N2CCOCC2)cc1`, 12.2%; in that of `O=C(Nc1ccc2[nH]ncc2c1)c1ccccc1Br`, 11.5%. As for `S=c1[nH]nc(-c2ccccn2)n1/N=C/c1ccc(Br)s1`, the figure is 15.7%; as for `COCCCC1CCN(C(=O)C2CCC(=O)N(Cc3ccccc3F)C2)CC1` (centres unmarked), -7.2%; as for `COC(=O)C1=CC(C(=O)c2cccs2)=NN(c2ccc(OC)cc2)C1C(=O)OC` (centres unmarked), 2.54%. For the compound `O=C(Nc1ccc(Cl)cc1)c1cccc(S(=O)(=O)Nc2ccccn2)c1`, the “hERG current change (%, negative = inhibition) at 1uM” value is listed as -4.61%. As for `Cc1sc(NC(=O)CN(CCc2ccccc2)C(=O)C2CC2)c(C(N)=O)c1C`, the figure is 3.41%; as for `O=C(c1ccccc1Br)N(Cc1ccccc1)c1ccccc1`, 18.2%. In the case of `CC(C)c1ccc(C(=O)Nc2nnc(S(=O)(=O)N3CCCCC3)s2)cc1` it was 11.8%; in that of `CC1(C)Cc2cccc(OCC(=O)NCc3ccccc3F)c2O1`, -2.66%.
